Measurements published in the supplement of paper PMC8728848.
This is one part of the list.

Columns and labels:
Assay in all cases: glycan array binding signal (z-score within array); higher = stronger binding
Settings in all cases: glycan notation: IUPAC condensed, linker removed
[1] = target: Gal(b1-4)GlcNAc(b1-2)Man(a1-6)[Man(a1-3)]Man(b1-4)GlcNAc(b1-4)GlcNAc
Method in brief: (§1)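 The binding signal is a Z-score computed within each array and averaged over linkers. Arrays of the same protein sequence at different concentrations or buffers were also averaged together. Data originate from 3228 arrays in the Consortium for Functional Glycomics database, kept only where the protein sequence was available.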

[2] = target: Gal(b1-4)GlcNAc(b1-2)[Gal(b1-4)GlcNAc(b1-4)]Man(a1-3)[Gal(b1-4)GlcNAc(b1-2)Man(a1-6)]Man(b1-4)GlcNAc(b1-4)GlcNAc
Method in brief: as §1

[3] = target: Gal(b1-4)GlcNAc(b1-2)[Gal(b1-4)GlcNAc(b1-4)]Man(a1-3)[Gal(b1-4)GlcNAc(b1-2)[Gal(b1-4)GlcNAc(b1-6)]Man(a1-6)]Man(b1-4)GlcNAc(b1-4)GlcNAc
Method in brief: as §1

[4] = target: Gal(b1-4)GlcNAc(b1-2)[Gal(b1-4)GlcNAc(b1-4)]Man(a1-3)[GlcNAc(b1-4)][Gal(b1-4)GlcNAc(b1-2)Man(a1-6)]Man(b1-4)GlcNAc(b1-4)GlcNAc
Method in brief: as §1

[5] = target: Gal(b1-4)GlcNAc(b1-2)[Gal(b1-4)GlcNAc(b1-4)]Man(a1-3)[GlcNAc(b1-4)][Gal(b1-4)GlcNAc(b1-2)[Gal(b1-4)GlcNAc(b1-6)]Man(a1-6)]Man(b1-4)GlcNAc(b1-4)GlcNAc
Method in brief: as §1

[6] = target: Gal(b1-4)GlcNAc(b1-2)[Gal(b1-4)GlcNAc(b1-6)]Man(a1-6)[Gal(b1-4)GlcNAc(b1-2)Man(a1-3)]Man(b1-4)GlcNAc(b1-4)GlcNAc
Method in brief: as §1

[7] = target: Gal(b1-4)GlcNAc(b1-2)[Gal(b1-4)GlcNAc(b1-6)]Man(a1-6)[Gal(b1-4)GlcNAc(b1-2)Man(a1-3)]Man(b1-4)GlcNAc(b1-4)[Fuc(a1-6)]GlcNAc
Method in brief: as §1

[8] = target: Gal(b1-4)GlcNAc(b1-2)[Gal(b1-4)GlcNAc(b1-6)]Man(a1-6)[GlcNAc(b1-4)][Gal(b1-4)GlcNAc(b1-2)Man(a1-3)]Man(b1-4)GlcNAc(b1-4)GlcNAc
Method in brief: as §1

[9] = target: Gal(b1-4)GlcNAc(b1-2)[Gal(b1-4)GlcNAc(b1-6)]Man(a1-6)[GlcNAc(b1-4)][Gal(b1-4)GlcNAc(b1-2)[Gal(b1-4)GlcNAc(b1-4)]Man(a1-3)]Man(b1-4)GlcNAc(b1-4)[Fuc(a1-6)]GlcNAc
Method in brief: as §1

[10] = target: Gal(b1-4)GlcNAc(b1-3)Gal(b1-3)GalNAc
Method in brief: as §1

[11] = target: Gal(b1-4)GlcNAc(b1-3)Gal(b1-3)GlcNAc
Method in brief: as §1

[12] = target: Gal(b1-4)GlcNAc(b1-3)Gal(b1-4)Glc
Method in brief: as §1

[13] = target: Gal(b1-4)GlcNAc(b1-3)Gal(b1-4)GlcNAc
Method in brief: as §1

[14] = target: Gal(b1-4)GlcNAc(b1-3)Gal(b1-4)GlcNAc(b1-2)Man(a1-3)[Gal(b1-4)GlcNAc(b1-3)Gal(b1-4)GlcNAc(b1-2)Man(a1-6)]Man(b1-4)GlcNAc(b1-4)GlcNAc
Method in brief: as §1

[15] = target: Gal(b1-4)GlcNAc(b1-3)Gal(b1-4)GlcNAc(b1-2)Man(a1-3)[Gal(b1-4)GlcNAc(b1-3)Gal(b1-4)GlcNAc(b1-2)Man(a1-6)]Man(b1-4)GlcNAc(b1-4)[Fuc(a1-6)]GlcNAc
Method in brief: as §1

[16] = target: Gal(b1-4)GlcNAc(b1-3)Gal(b1-4)GlcNAc(b1-2)[Gal(b1-4)GlcNAc(b1-3)Gal(b1-4)GlcNAc(b1-6)]Man(a1-6)[Gal(b1-4)GlcNAc(b1-3)Gal(b1-4)GlcNAc(b1-2)Man(a1-3)]Man(b1-4)GlcNAc(b1-4)GlcNAc
Method in brief: as §1

[17] = target: Gal(b1-4)GlcNAc(b1-3)Gal(b1-4)GlcNAc(b1-2)[Gal(b1-4)GlcNAc(b1-3)Gal(b1-4)GlcNAc(b1-6)]Man(a1-6)[Gal(b1-4)GlcNAc(b1-3)Gal(b1-4)GlcNAc(b1-2)Man(a1-3)]Man(b1-4)GlcNAc(b1-4)[Fuc(a1-6)]GlcNAc
Method in brief: as §1

[18] = target: Gal(b1-4)GlcNAc(b1-3)Gal(b1-4)GlcNAc(b1-3)Gal(b1-4)GlcNAc
Method in brief: as §1

B1: PV12658A-bvu-496-32-496 (Bacteroides vulgatus) (protein)
chain: DLDGAITTPAAVELALNGIYYSLPGNGFNVIFPTVSGSFKAGTMWRQEIVSAGNAVYYSERMLPTLSFSDATEWDADYAVIKNANFLETACNRMSDGEFSGNRRAEVLGEIAYLRALAYFNILVRYCEFWDMNSEYGVVMRNEAPSVSNALKARSSVADSYQYILDQLEIAIEKAPDWKKLSQASKEAAKALKARVLLYAGKYTEAVAAVNDAIDTNSPLPEANYGDVFDKFSTTKEILFARVFDQKDATNTSTRQQCYGNSPTKKQGYWGPTNEYVELVGDDPRADAIFSKVDSLMDSRSSAVAYNLKSVKKLLNDANDMPVIFSRVSELYLIKAEALYRSGASISEAYAPIRKLRERAGAEIILPANNEELETAIFNEWMLELSFENWHEWFAMIRFAGYTEKPDFTRLLALNKTLREALEKEYEKSEAQGDNYYQRIIDRRIDAIPSSEISSNLECKQNPGY
- glycan array binding signal (z-score) [1]: -0.306
- glycan array binding signal (z-score) [2]: 0.241
- glycan array binding signal (z-score) [3]: -0.416
- glycan array binding signal (z-score) [4]: -0.192
- glycan array binding signal (z-score) [5]: -0.422
- glycan array binding signal (z-score) [6]: -0.475
- glycan array binding signal (z-score) [7]: -0.137
- glycan array binding signal (z-score) [8]: -0.161
- glycan array binding signal (z-score) [9]: -0.179
- glycan array binding signal (z-score) [10]: -0.417
- glycan array binding signal (z-score) [11]: -0.494
- glycan array binding signal (z-score) [12]: -0.266
- glycan array binding signal (z-score) [13]: -0.608
- glycan array binding signal (z-score) [14]: 1.18
- glycan array binding signal (z-score) [15]: 0.906
- glycan array binding signal (z-score) [16]: -0.347
- glycan array binding signal (z-score) [17]: 0.099
- glycan array binding signal (z-score) [18]: -0.184
